This is one part of the list. At the low end of the ranking the order means little.
target: SIX1-Q177R homeodomain (UniProt Q15475); experiment: universal protein binding microarray; conditions: Universal all-10-mer PBM (8x60K, AMADID 030236), 300 nM GST-tagged protein, Alexa Fluor 488 anti-GST; buffer, salt, pH and temperature not stated; high values mean tight binding; most listed sequences are background and not binding sites; double strand, one strand shown

Sequence	binding signal [E-score]
TAACCCTA	0.143
GCTCAAAC	-0.0213
CCGTCGAG	0.112
CATATTTC	0.0184
CAAGCTTC	-0.292
CAATAAGA	-0.0698
ACGGGTGA	0.146
AGTGACAC	0.469
AAATTTGA	0.0631
AACATTAC	-0.133
GAACGGAC	0.0365
AACTTTCC	-0.201
ACGTCGAA	-0.249
ATGGCCTC	-0.146
CTCTATAC	-0.0659
CTCCTAAC	0.101
AGTATTTC	-0.203
ACTAACTA	0.00173
TCGCCTCA	-0.238
GAGGCGAC	-0.0751
ACCTCACA	0.244
GATCCGAC	0.0461
CCTACAGG	-0.0239
AAATATTA	0.184
AGTGAAAC	-0.032

Sequence	binding signal [E-score]
ATGCGATC	-0.102
AGTTCTTG	-0.155
CCATTAAC	0.0974
GTATTTGA	-0.113
TGTTGTAA	-0.118
TATATATA	0.181
CGAAGCTA	-0.261
ACCGGCTA	0.0742
ACCCAGTC	-0.0259
CGTGGTCA	-0.147
TCAAGCGA	-0.198
GTAGGGGA	0.0746
GGCATGGA	-0.0648
AACTGACA	0.207
CTCATTGC	-0.0338
AGTCGGTG	0.297
AGGTTAAA	-0.0439
AGGAACTG	-0.385
CGTGTTCA	0.409
ATCTTTGA	-0.153
CATGACTA	-0.0566
AAGCCAAC	-0.0607
GCTTTGTA	-0.103
CGTTACTA	-0.102
CAAGAGAG	-0.2

Sequence	binding signal [E-score]
ACAAGAGA	0.0143
ATGGGAGG	-0.0623
AAGCATCT	-0.249
CTCCTATA	-0.0502
ATCTAGGG	-0.113
AGAGAACT	-0.047
TACCTGGA	0.0313
GCGAGACA	0.249
CTAACCCC	0.223
TATGAAAA	-0.202
CCATCCAG	-0.012
CAGCCGGA	-0.0688
CAAGCATA	-0.133
TAGACCGA	0.087
AATTATTC	-0.172
ACACCTGG	0.448
AACAGCGC	-0.175
AGGCGCCC	-0.295
CAAAGGCC	-0.285
CGCACCCC	0.207
CATTAATG	0.0899
ACATCGCC	0.102
GATACAGA	-0.106
GAAACACA	0.108
CACCATAG	0.292

Sequence	binding signal [E-score]
ACCAACGG	0.126
TAACGCTA	0.0739
ACCAATTC	-0.162
ATGGTAAA	-0.162
GTCGCGGA	0.0112
AGTCTCTA	-0.274
AATTAAGT	0.0101
ACATTTTA	-0.121
CCCCACCC	0.278
ACAAGCCT	-0.145
AGGCAGCC	-0.141
CATCGAGC	-0.11
AAGAGAAG	-0.0968
GCATTCGA	0.0752
CCAATGGA	0.0185
AGTTGCCC	-0.0853
GAAATATC	-0.0287
GAGAATTA	-0.251
AACATCAC	-0.000915
CCTAGAGG	0.00898
ATAGCGCG	-0.0439
ACATGCTA	-0.188
ATTGCCTG	-0.075
GAGCGTTA	-0.0157
ACCGAGCG	0.0767

Sequence	binding signal [E-score]
GCTGTGAC	0.0771
GCAAAGCA	-0.116
AGAGGTAC	-0.00898
CCACCGCG	0.0122
ACCATCGC	-0.0465
AGGTACCG	-0.213
CGGAAGAA	-0.224
ACTCTTGA	0.0639
ACATATGA	-0.0772
ATTCACCC	0.048
CCATTGGG	0.0654
GTGGGATA	0.126
CTGAGTAA	-0.242
ACCGGCGA	-0.0468
ATCTTCTA	-0.227
GTAAGACA	0.102
GTGCCTCA	-0.12
ATGATTGC	-0.0329
CGATCCGC	0.117
CATCACGG	-0.168
GCAGTTCA	-0.251
CACTAGCA	0.163
CCTCTTCC	-0.0987
AACACTCT	0.35
TCGTACCA	-0.115

Sequence	binding signal [E-score]
AGACCGTA	-0.235
CGTCGACA	0.0742
ACGAGGAA	0.0788
GTTGCAAA	-0.181
CACAATAC	0.0874
CTACATAC	-0.0222
AGGCCGGC	-0.126
ATTACCTA	-0.00668
GCAAAATA	-0.0852
TACACACA	0.259
CGGTTAAC	0.0714
AGGAATGC	-0.333
CCACGGAC	-0.197
ATGGTAGG	-0.0293
GACATTGC	-0.159
CCCTCTGC	-0.0846
CTTACATA	-0.129
AGCACCAA	0.196
GGCAGCTA	-0.193
ACCCTGAC	0.0909
AGAGCGGA	-0.234
CACGACCA	0.227
GTGTATCA	0.392
CGTATAAA	0.0911
CTCCGCTA	-0.14

Sequence	binding signal [E-score]
AAAGCGCC	-0.134
CCTAAATC	-0.0794
GTCGCATA	-0.053
CACAATGA	0.0742
AGCATTTG	-0.0392
GCTCTCGA	-0.133
ACTATGCG	0.17
CCCACACG	0.288
AACTATCT	-0.36
CATCTACG	-0.055
ATAAGACA	0.097
AAAGCTCT	-0.0399
AACTGCTA	-0.0875
AGGGTACT	0.122
CGTGGTGA	-0.152
GGGGTTAC	0.261
AAGTTGGG	0.0943
AGAGATGG	-0.0936
AAGGGCGT	-0.0321
GACGGGAC	-0.267
CGCAGCCA	0.0178
CCATGAGG	-0.112
ATGTTGCC	-0.22
CGAATGGA	0.0397
AATGGTCC	-0.189

Sequence	binding signal [E-score]
ACCGCTGG	0.107
CCTATGAG	0.122
ACTGGTAA	-0.103
AACACTGT	0.344
GCCTGGCA	-0.256
GACGCTCC	-0.137
ACTACGGA	-0.0336
GTACAATA	-0.0198
AGCGCGAA	-0.0336
AATCCACG	-0.216
CAACGAGC	0.0176
CTTCCGCA	0.0572
CTGCGCCA	-0.18
ATATTAAC	-0.0434
GCTATTAC	0.0419
AAAGGCGT	-0.177
ATCGACGC	-0.0739
GCAGCTAA	-0.117
CATAGAGC	-0.148
ACGCCCCC	0.19
TCGAGGAA	-0.184
ATACCAAG	0.0629
ACGTCTGG	-0.0903
CCATGCGG	-0.0792
CCATTATC	0.0133

Sequence	binding signal [E-score]
GATGTAAC	0.0393
AGGTGATG	-0.0885
ACACAATG	0.164
GTCTTCTA	-0.0243
ATTCACGA	-0.115
CGTGGCAA	-0.176
AGGCAGGC	-0.237
GGGTCCTA	0.0332
AGTTTGGA	-0.0686
CTGTTCTA	-0.117
ACTACTAT	-0.0262
ACTGACCC	0.213
AATACGGC	-0.0017
CTCGATAC	0.121
CATCAATG	-0.202
AACGAGCG	0.099
AAGTTAGA	0.0264
AACGCACC	0.146
CGAAGATA	0.0654
TAGAACTA	-0.136
ATCACTGA	-0.173
GAAAACAA	-0.0374
ACGCAGTG	0.212
GAACCGAC	0.0354
ATCGCGAC	-0.211

Sequence	binding signal [E-score]
ACACGTAT	0.388
CACCAGCA	0.341
GAGGATGC	-0.0878
AAGGTCGT	-0.11
GATTCGCA	-0.0516
ATATACCC	0.238
AAGAGGAC	-0.0666
CGCGGCGC	-0.00608
CTTAAACA	0.0215
CTGCTTTC	-0.0783
ATCCGTTA	-0.106
GGACACCA	0.483
AACTCCGC	0.0512
GCTGCTAA	0.083
GTCAAACA	0.189
AGACTACG	-0.202
AAGTGTTG	0.289
AGAAAACC	-0.234
ACAGAGGA	-0.0252
GCCAAAAA	-0.194
AATTGATC	0.00817
ATCCCGTA	0.099
ACCAGGGA	0.121
CGGTTAAA	-0.123
ACCTAGGC	-0.0374

Sequence	binding signal [E-score]
AGTGGAAG	-0.0981
GTATCCGA	0.312
AGAGATAA	-0.168
CATGGAAC	-0.169
GGGGACCA	-0.0564
CTTAGGAC	0.0624
CTCTACAC	0.391
GATTAACA	0.162
GAAGTAGC	-0.13
CAAATCGC	-0.118
AAACTGAC	0.0245
ATTCCAAA	-0.0103
ACTAGCAA	0.0822
CCTCGAAC	-0.015
ATCAAACG	-0.288
AGAACGAT	-0.0942
AACTCCCA	0.0712
TGGACTAA	-0.15
ATCATGTA	-0.0846
GCGTATCC	0.176
GCATTACC	-0.0109
GCGGGCTA	-0.118
TAGGACCA	-0.125
ATATGCAC	0.0852
ACCTCGAG	0.00722

Sequence	binding signal [E-score]
CGCGCGAG	-0.174
AGTAGACT	-0.146
ACTGAAAT	-0.129
GATCGGCC	0.0859
ACGATATG	0.0101
AGTGATTC	-0.0729
ATAACAAC	0.00677
ATCGCCAG	-0.0992
CTACTGAG	-0.0489
TGCCATAA	-0.0217
ACATTAAA	-0.129
CTTCAGGC	0.00547
ACCGGGCA	0.037
ACCGCTAG	0.171
AAATGATT	-0.224
CTCGATTA	0.0237
AATCGCGG	-0.0765
CCCGATCC	0.239
CCCCATAG	0.209
AACAAATT	-0.174
CACCGATA	0.313
ACCGGCAA	-0.0503
ACGCGTCC	0.174
CGAATAAC	0.0493
ATATGATC	0.0526

Sequence	binding signal [E-score]
TCCTAAAA	-0.0345
ACCATTCC	0.0494
GCATATGA	0.0212
GCTCGTGA	-0.103
ATCGCGGC	-0.137
AACGAAGT	-0.0611
AAGGATCC	0.178
ATAGCTCA	-0.144
GGGGGAAA	-0.141
ACTATCCC	0.0126
GTTGCGCA	-0.122
AAGCGTGC	-0.00144
GCCTGAGC	-0.139
CTTCGAAG	-0.0709
ACGAACAT	-0.118
GGCCTACC	-0.0529
GTAGACCA	-0.141
GTAAACAC	0.375
ACCGATTA	0.0958
AGGTATCA	0.324
CCTCAACG	-0.0648
AGCAAAGA	-0.142
TAGCTGGA	-0.0783
AAATGATA	0.0796
GTAGCCTA	-0.00659

Sequence	binding signal [E-score]
GCCGGGAA	-0.248
ATTCGTTG	-0.138
AAACCGAA	0.0031
CCGGGGCC	-0.116
ATCATGCC	-0.131
AGAATGCT	-0.152
TATCGACA	0.212
ACAAGCTG	-0.0734
CGCGCAAA	0.0874
ATTCACTA	-0.00613
CCGCTGGA	-0.1
AATCTCGA	-0.19
GGCAGGCA	-0.224
GACCTCTC	-0.152
ATTACGGC	-0.169
ACTCGTTG	-0.063
TAGCCCCA	0.0826
ATTCTTGC	-0.129
GCTGGTAC	-0.0799

From publication PMC10668032
